# Data from the supplement of paper PMC8728848.
# The list shows a part of the results.
# B1: Di AAL2 (Agrocybe aegerita) (protein)
# chain: MTSNVITQDLPIPVASRGFADIVGFGLDGVVIGRNAVNLQPFLAVKNFAQNAGGWLTTKHVRLIADTTGTGKGDIVGFGNAGVYVSVNNGKNTFADPPKMVIANFGYDAGGWRVEKHLRYLADIRKIGRADIIGFGEKGVLVSRNNGGLNFGPATLVLKDFGYDAGGWRLDRHLRFLADVTGNGHLDIVGFGDKHVFISRNNGDGTFAPAKSVIDNFCIDAGGWKIGDHPRFVADLTGDGTADIIGCGKAGCWVALNNGGGVFGQVKLVINDFGTDKGWQAAKHPRFIADLTGNGRGDVVGFGNAGVYVALNNGDGTFQSAKLVLKDFGVQQGWTVSKHRRFVVDLTGDGCADIIGFGEKETLVSYNDGKGNFGPVKALTNDFSFSGGKWAPETTVCWMANLDSSRHPAPAPMTSNVITQDLPIPVASRGFADIVGFGLDGVVIGRNAVNLQPFLAVKNFAQNAGGWLTTKHVRLIADTTGTGKGDIVGFGNAGVYVSVNNGKNTFADPPKMVIANFGYDAGGWRVEKHLRYLADIRKIGRADIIGFGEKGVLVSRNNGGLNFGPATLVLKDFGYDAGGWRLDRHLRFLADVTGNGHLDIVGFGDKHVFISRNNGDGTFAPAKSVIDNFCIDAGGWKIGDHPRFVADLTGDGTADIIGCGKAGCWVALNNGGGVFGQVKLVINDFGTDKGWQAAKHPRFIADLTGNGRGDVVGFGNAGVYVALNNGDGTFQSAKLVLKDFGVQQGWTVSKHRRFVVDLTGDGCADIIGFGEKETLVSYNDGKGNFGPVKALTNDFSFSGGKWAPETTVCWMANLDSSRH
# Columns and labels:
# Experiment in all cases: glycan array binding signal (z-score within array); higher = stronger binding
# Settings in all cases: glycan notation: IUPAC condensed, linker removed
# [1] = target: GlcNAc(b1-3)Gal(b1-4)GlcNAc(b1-3)Gal(b1-4)GlcNAc(b1-3)Gal(b1-4)GlcNAc(b1-3)Gal(b1-4)GlcNAc(b1-2)[GlcNAc(b1-3)Gal(b1-4)GlcNAc(b1-3)Gal(b1-4)GlcNAc(b1-3)Gal(b1-4)GlcNAc(b1-3)Gal(b1-4)GlcNAc(b1-6)]Man(a1-6)[GlcNAc(b1-3)Gal(b1-4)GlcNAc(b1-3)Gal(b1-4)GlcNAc(b1-3)Gal(b1-4)GlcNAc(b1-3)Gal(b1-4)GlcNAc(b1-2)Man(a1-3)]Man(b1-4)GlcNAc(b1-4)[Fuc(a1-6)]GlcNAc
# Procedure, shortened: (§1)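 Columns mapping to the same glycan were averaged after glycan names were converted to IUPAC-condensed notation. The data come from 3228 arrays in the Consortium for Functional Glycomics database, limited to those with an available protein sequence. Binding is reported as a within-array Z-score averaged across arrays of one protein sequence and across linkers.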
# [2] = target: GlcNAc(b1-3)Gal(b1-4)GlcNAc(b1-3)Gal(b1-4)GlcNAc(b1-3)GalNAc
# Procedure, shortened: as §1
# [3] = target: GlcNAc(b1-3)Gal(b1-4)GlcNAc(b1-3)GalNAc
# Procedure, shortened: as §1
# [4] = target: GlcNAc(b1-3)Gal(b1-4)GlcNAc(b1-3)[GlcNAc(b1-3)Gal(b1-4)GlcNAc(b1-3)]GalNAc
# Procedure, shortened: as §1
# [5] = target: GlcNAc(b1-3)Gal(b1-4)GlcNAc(b1-6)[Gal(b1-3)]GalNAc
# Procedure, shortened: as §1
# [6] = target: GlcNAc(b1-3)Gal(b1-4)GlcNAc(b1-6)[GlcNAc(b1-3)Gal(b1-3)]GalNAc
# Procedure, shortened: as §1
# [7] = target: GlcNAc(b1-3)Gal(b1-4)GlcNAc(b1-6)[GlcNAc(b1-3)]Gal(b1-4)GlcNAc
# Procedure, shortened: as §1
# GlcNAc(b1-3)GalNAc = target: GlcNAc(b1-3)GalNAc
# Procedure, shortened: as §1
# GlcNAc(b1-3)Man = target: GlcNAc(b1-3)Man
# Procedure, shortened: as §1
# [8] = target: GlcNAc(b1-3)[GlcNAc(b1-4)][GlcNAc(b1-6)]GlcNAc
# Procedure, shortened: as §1
# [9] = target: GlcNAc(b1-3)[GlcNAc(b1-6)]Gal(b1-4)GlcNAc
# Procedure, shortened: as §1
# [10] = target: GlcNAc(b1-3)[GlcNAc(b1-6)]GalNAc
# Procedure, shortened: as §1
# [11] = target: GlcNAc(b1-4)Gal(b1-4)GlcNAc
# Procedure, shortened: as §1
# GlcNAc(b1-4)GlcNAc = target: GlcNAc(b1-4)GlcNAc
# Procedure, shortened: as §1
# [12] = target: GlcNAc(b1-4)GlcNAc(b1-4)GlcNAc
# Procedure, shortened: as §1
# [13] = target: GlcNAc(b1-4)GlcNAc(b1-4)GlcNAc(b1-4)GlcNAc(b1-4)GlcNAc
# Procedure, shortened: as §1
# [14] = target: GlcNAc(b1-4)GlcNAc(b1-4)GlcNAc(b1-4)GlcNAc(b1-4)GlcNAc(b1-4)GlcNAc
# Procedure, shortened: as §1
# [15] = target: GlcNAc(b1-4)[GlcNAc(b1-6)]GalNAc
# Procedure, shortened: as §1
# [16] = target: GlcNAc(b1-6)Gal(b1-4)GlcNAc
# Procedure, shortened: as §1
# GlcNAc(b1-6)GalNAc = target: GlcNAc(b1-6)GalNAc
# Procedure, shortened: as §1
# [17] = target: GlcNAc6S(b1-3)Gal(b1-4)GlcNAc
# Procedure, shortened: as §1
# Kdn(a2-3)Gal(b1-3)GalNAc = target: Kdn(a2-3)Gal(b1-3)GalNAc
# Procedure, shortened: as §1
# Kdn(a2-3)Gal(b1-3)GlcNAc = target: Kdn(a2-3)Gal(b1-3)GlcNAc
# Procedure, shortened: as §1
# Kdn(a2-3)Gal(b1-4)Glc = target: Kdn(a2-3)Gal(b1-4)Glc
# Procedure, shortened: as §1
# Kdn(a2-3)Gal(b1-4)GlcNAc = target: Kdn(a2-3)Gal(b1-4)GlcNAc
# Procedure, shortened: as §1
# [18] = target: Kdn(a2-3)Gal(b1-4)[Fuc(a1-3)]GlcNAc
# Procedure, shortened: as §1
# Kdn(a2-6)Gal(b1-4)GlcNAc = target: Kdn(a2-6)Gal(b1-4)GlcNAc
# Procedure, shortened: as §1
# [19] = target: Man(a1-2)Man(a1-2)Man(a1-3)Man
# Procedure, shortened: as §1
# [20] = target: Man(a1-2)Man(a1-2)Man(a1-6)[Man(a1-3)]Man
# Procedure, shortened: as §1
# Man(a1-2)Man(a1-3)Man = target: Man(a1-2)Man(a1-3)Man
# Procedure, shortened: as §1
binder,measurement,setting,value
B1,glycan array binding signal (z-score),[1],5.69
same,glycan array binding signal (z-score),[2],2.83
same,glycan array binding signal (z-score),[3],2.06
same,glycan array binding signal (z-score),[4],1.68
same,glycan array binding signal (z-score),[5],1.46
same,glycan array binding signal (z-score),[6],0.959
same,glycan array binding signal (z-score),[7],2.56
same,glycan array binding signal (z-score),GlcNAc(b1-3)GalNAc,1.48
same,glycan array binding signal (z-score),GlcNAc(b1-3)Man,-0.31
same,glycan array binding signal (z-score),[8],0.036
same,glycan array binding signal (z-score),[9],2
same,glycan array binding signal (z-score),[10],1.22
same,glycan array binding signal (z-score),[11],-0.305
same,glycan array binding signal (z-score),GlcNAc(b1-4)GlcNAc,0.57
same,glycan array binding signal (z-score),[12],0.699
same,glycan array binding signal (z-score),[13],0.501
same,glycan array binding signal (z-score),[14],0.311
same,glycan array binding signal (z-score),[15],0.392
same,glycan array binding signal (z-score),[16],-0.325
same,glycan array binding signal (z-score),GlcNAc(b1-6)GalNAc,0.76
same,glycan array binding signal (z-score),[17],-0.325
same,glycan array binding signal (z-score),Kdn(a2-3)Gal(b1-3)GalNAc,-0.327
same,glycan array binding signal (z-score),Kdn(a2-3)Gal(b1-3)GlcNAc,-0.34
same,glycan array binding signal (z-score),Kdn(a2-3)Gal(b1-4)Glc,-0.326
same,glycan array binding signal (z-score),Kdn(a2-3)Gal(b1-4)GlcNAc,-0.335
same,glycan array binding signal (z-score),[18],-0.331
same,glycan array binding signal (z-score),Kdn(a2-6)Gal(b1-4)GlcNAc,-0.335
same,glycan array binding signal (z-score),[19],-0.342
same,glycan array binding signal (z-score),[20],-0.334
same,glycan array binding signal (z-score),Man(a1-2)Man(a1-3)Man,-0.342
